# In article PMC4336329 (PLoS ONE, 2015):
# Screen size: about 310,000 compounds; about 14,000 (4.5%) showed an effect of 50% or more. Effects have a minus sign here. The list shows a part of the results.
# Target: human ether-à-go-go-related gene (hERG) potassium channel (human, UniProt Q12809)
# Assay: primary screen, population patch clamp on CHO cells stably expressing hERG
# 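Further: peak tail current of the secondary pulse compared with the same well before compound.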
# Sequence of human ether-à-go-go-related gene (hERG) potassium channel (Q12809 whole entry, looked up): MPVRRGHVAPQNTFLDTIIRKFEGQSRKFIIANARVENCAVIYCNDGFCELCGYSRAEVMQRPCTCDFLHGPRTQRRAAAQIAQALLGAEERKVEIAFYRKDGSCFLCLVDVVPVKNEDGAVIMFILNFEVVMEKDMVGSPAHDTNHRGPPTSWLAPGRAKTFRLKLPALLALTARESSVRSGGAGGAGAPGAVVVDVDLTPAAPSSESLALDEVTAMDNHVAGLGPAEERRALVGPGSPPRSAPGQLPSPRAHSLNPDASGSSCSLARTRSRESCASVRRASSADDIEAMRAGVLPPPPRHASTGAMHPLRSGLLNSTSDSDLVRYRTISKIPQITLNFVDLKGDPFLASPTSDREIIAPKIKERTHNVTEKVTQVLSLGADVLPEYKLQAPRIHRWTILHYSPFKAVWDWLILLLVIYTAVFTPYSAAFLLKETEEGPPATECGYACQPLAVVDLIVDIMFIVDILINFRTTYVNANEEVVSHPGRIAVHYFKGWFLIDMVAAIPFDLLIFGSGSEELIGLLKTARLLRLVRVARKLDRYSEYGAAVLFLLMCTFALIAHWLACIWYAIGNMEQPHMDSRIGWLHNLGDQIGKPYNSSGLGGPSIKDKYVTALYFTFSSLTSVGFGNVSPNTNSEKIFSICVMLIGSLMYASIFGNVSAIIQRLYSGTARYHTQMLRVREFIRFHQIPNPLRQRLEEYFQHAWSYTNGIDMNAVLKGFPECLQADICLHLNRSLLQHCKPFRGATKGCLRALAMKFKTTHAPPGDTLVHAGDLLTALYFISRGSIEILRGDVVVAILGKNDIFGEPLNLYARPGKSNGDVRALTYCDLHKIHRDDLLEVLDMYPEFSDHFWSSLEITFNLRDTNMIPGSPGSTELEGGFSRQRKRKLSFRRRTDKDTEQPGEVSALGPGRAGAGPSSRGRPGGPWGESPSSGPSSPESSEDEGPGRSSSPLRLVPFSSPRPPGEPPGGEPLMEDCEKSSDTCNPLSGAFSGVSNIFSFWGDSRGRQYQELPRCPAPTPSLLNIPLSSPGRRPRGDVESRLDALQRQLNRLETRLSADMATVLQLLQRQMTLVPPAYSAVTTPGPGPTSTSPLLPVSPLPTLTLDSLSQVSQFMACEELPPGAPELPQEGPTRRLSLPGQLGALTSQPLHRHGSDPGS
row,SMILES,"hERG current change (%, negative = inhibition) at 10uM"
1,O=C(OCC(=O)N1CCOCC1)c1ccc(F)cc1Cl,36.8%
2,O=C(Nc1ccc(Cl)cn1)c1ccc2c(c1)OCCO2,-47.3%
3,COc1ccc(-c2cc(-c3c(O)c(OC)c4occc4c3OC)[nH]n2)cc1,6.03%
4,CN(C)c1ccc(C(C[N+](=O)[O-])c2c(N)n(C)c(=O)n(C)c2=O)c(F)c1C#N (centres unmarked),-1.17%
5,CCOC(=O)N1CCN(c2cc(=O)n(C)c(=O)n2C)CC1,15.6%
6,Cc1ccnc(NS(=O)(=O)c2cc(C(F)(F)F)ccc2Cl)c1,3.13%
7,O=S(=O)(NC1CCCCCCC1)c1cccs1,-34.4%
8,O=C(O)CCCC(=O)OCc1c(-c2ccccc2)ncc2ccccc12,10%
9,Cn1c(N2CCN(c3ccccn3)CC2)nc2c1c(=O)n(Cc1ccc(Cl)cc1)c(=O)n2C,-18%
10,CCc1ccc(Nc2n[n+](-c3ccccc3)c(-c3cc(OC)c(OC)cc3Br)s2)cc1.[Cl-],-55%
11,CCOC(=O)N1CCN(Cc2nc3cc(NC(=O)CC(C)C)ccc3n2CC)CC1,-8.18%
12,CN1CCCN(C(=O)c2ccccc2Cl)CC1,4.84%
13,COc1nc(-c2ccccc2)ccc1-c1noc(-c2ccco2)n1,6.02%
14,COc1ccc(CCn2c(N)c(C#N)c3nc4ccccc4nc32)cc1OC,4.14%
15,Cc1cc(C(F)(F)F)c(C#N)c(SCC(=O)NC2CC2)n1,-4.11%
16,N#Cc1cnn(CC2CCCCC2)c1N,14%
17,O=C(CN(c1ccccc1)S(=O)(=O)c1ccccc1)N/N=C/c1ccco1,-21.8%
18,CCOC(=O)c1ccc(NC(=O)CSc2nc(C)nc3c2c(=O)n(C)c(=O)n3C)cc1,-24.3%
19,CC1(C)OC1COc1c2occc2cc2ccc(=O)oc12 (centres unmarked),9.88%

row,SMILES,"hERG current change (%, negative = inhibition) at 10uM"
1,Cc1ccc2c(c1)N(CC(=O)NC1CCCC(C)C1C)C(=O)c1cccnc1O2 (centres unmarked),-10.6%
2,CCCCN(CC)Cc1c(O)ccc2c(-c3ccccc3)cc(=O)oc12,-17.7%
3,COC(=O)CSc1nc(-c2ccc(F)cc2)cc(C(F)(F)F)n1,11.9%
4,OC1(c2ccccc2Cl)NN=C2CCCCCN21 (centres unmarked),14.9%
5,CCOC(=O)C1CCCN(C(=O)c2ccc3c(c2)N(C)C(=O)/C(=C/c2ccccc2Cl)S3)C1 (centres unmarked),-10.1%
6,CCOc1ccc(NC(=O)CN(C)C(=O)CC(NC(=O)c2ccccc2)c2ccccc2)cc1OCC (centres unmarked),-51.9%
7,COc1ccc(C(=O)NCC(C)NC(=O)c2ccc(OC)c(Br)c2)cc1Br (centres unmarked),4.83%
8,CCCc1nc2ccccc2c(C(=O)OC2CCOC2=O)c1CC (centres unmarked),-15.1%
9,CS(=O)(=O)c1ccc(C(=O)Nc2cccc(-c3nc4ccccc4[nH]3)c2)cc1,16%
10,O=C1c2ccccc2C(=O)N1CCCc1nc(-c2ccncc2)no1,-3.72%
11,Cc1ccc(-n2c(C)cn(C(=O)c3ccccc3)c2=S)cc1,-4.31%
12,O=C(COc1ncnc2ccc(Br)cc12)N1CCOCC1,-4.95%
13,Cc1cc(C)c(C)c(S(=O)(=O)N2CCNCC2)c1C,49.5%
14,CCCCn1c(O)c(N=NC(=O)Cn2c(C(F)(F)F)nc3ccccc32)c2ccccc21,10.2%
15,O=C(Cc1ccccc1[N+](=O)[O-])Nc1ccc(S(=O)(=O)N2CCCC2)cc1,-4.46%
16,C=CCc1ccc(OCCn2cncn2)c(OC)c1,7.93%
17,O=C(NNS(=O)(=O)c1ccccc1)c1cccc(F)c1,17.2%
18,C/C(CC(=O)Nc1ccc(C)cc1C)=N\NC(=O)C(C)C,15.6%
19,S=C(Nc1ccccc1Cl)NC1CCC(NC(=S)Nc2ccccc2Cl)CC1 (centres unmarked),20.9%

row,SMILES,"hERG current change (%, negative = inhibition) at 10uM"
1,O=C(Nc1ccccc1)C1=C[C@@H](c2ccc(Br)cc2)C[C@@H](OCc2ccc(CO)cc2)O1,8.08%
2,COc1cc(OC)cc(C(=O)N2CCN=C2SCc2cccnc2)c1,-21.6%
3,Nc1nc(-c2ccccc2)cn1N,14.4%
4,CCOc1ccc(-n2c(Cc3cc(=O)[nH]c(=O)[nH]3)nnc2SC(C)C(=O)OC)cc1 (centres unmarked),6.08%
5,CN(C)C=O.O=[N+]([O-])c1cccc(COc2ncnc3cc([N+](=O)[O-])ccc23)c1,-36.5%
6,CN(C)C(CNc1ncnc2sccc12)c1ccccc1 (centres unmarked),-2.38%
7,Cc1cc(CNC(=O)CC2C(=O)NCCN2CC(c2ccccc2)c2ccccc2)on1 (centres unmarked),11.9%
8,COc1ccc(NC(=O)C2C3C=CC4(O3)C2C(=O)N(CCN2CCCCC2)C4C(=O)NC2CCCC(C)C2C)cc1 (centres unmarked),16.9%
9,CCC(CC)C(=O)c1c[nH]c(C(=O)NCc2ccco2)c1,-10.2%
10,CN1/C(=C/C=C(/C#N)C(N)=O)C(C)(C)c2ccccc21,-11%
11,COC(=O)c1cc2c(C(F)(F)F)nn(C)c2s1,9.18%
12,Cc1ccc(NC(=O)COCC(=O)Nc2ccc(C)cc2)cc1,-7.9%
13,O=C(/C=C/c1ccc([N+](=O)[O-])cc1)NCC1CCCO1 (centres unmarked),-12.8%
14,C/C(=N/NC(=O)CN1CCN(S(=O)(=O)c2ccc(C)cc2)CC1)c1ccco1,-53.7%
15,COc1ccc(N(C(=O)Cc2cccs2)C(C(=O)NC2CCCC2)c2ccncc2)cc1 (centres unmarked),10.2%
16,Cc1ccccc1OCC(=O)Nc1ccc(C(=O)Nc2ccccc2C(=O)O)cc1,6.65%
17,C=Cn1ccnc1P(=S)(c1nccn1C=C)C1CCCCC1,-33.7%
18,COc1ccc(C2CC(c3ccccc3)=NN2C(=O)COC(=O)c2ccc(S(C)(=O)=O)cc2)cc1 (centres unmarked),-0.642%
